# Results from a collection of fitness landscapes (doi:10.1016/j.celrep.2020.107928).
# Over roughly 81,000 sequences, “one-hybrid fitness for binding parS DNA” has its median near -0.17; the highest 2% begin near 0.51. This is one part of the list.
# B1: Caulobacter ParB omega fusion; a variant is named by its letters at X, in order, B8GW30 (parent)
# chain: MESVVVGEPGMSEGRRGLGRGLSALLGEVDAAPAQAPGEQLGGSREAPIEILQRNPDQPRRTFREEDLEDLSNSIREKGVLQPILVRPSPDTAGEYQIVAGERAWRAAQRAGLKTVPIMVRELDDLAVLEIGIIENVQRADLNVLEEALSYKVLMEKFERTQENIAQTIGKSXSHVANXMRLLXLPDEVQSYLVSGELTAXHARAIAAAADPVALAKQIIEGGLSVRETEALARKAPNLSAGKSKGGRPPRVKDTDTQALESDLSSVLGLDVSIDHRGSTGTLTITYATLEQLDDLCNRLTRGI
# Variants of: B1
# Test: one-hybrid fitness for binding parS DNA (scaled: cognate 1, non-cognate 0); higher = stronger binding
# Settings: with parS DNA site
# In short: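 Selection: bacterial one-hybrid in E. coli USO, HIS3 reporter with the site 19 bp from the promoter, 48 hours at 37°C on M9-minus-histidine plus 0.1 mM IPTG and 5 mM 3-AT. Libraries were Caulobacter ParB with four randomised specificity codons, sequenced on Illumina before and after selection. Fitness is the rescaled log change in variant-to-wild-type read ratio, anchored to the cognate and non-cognate sites.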
row,Variant,one-hybrid fitness for binding parS DNA
1,SVFW,≤ 0.2
2,CRLD,≤ 0.2
3,LRKL,≤ 0.2
4,KPLM,≤ 0.2
5,QCYT,≤ 0.2
6,NVMT,≤ 0.2
7,WHGM,≤ 0.2
8,IHID,≤ 0.2
9,GRNA,≤ 0.2
10,SGPT,≤ 0.2
11,FGTW,≤ 0.2
12,YMPF,≤ 0.2
13,HSKP,≤ 0.2
14,RQHS,0.988
15,YFEV,≤ 0.2
16,PDKK,≤ 0.2
17,VLDN,≤ 0.2
18,PVTA,≤ 0.2
19,AYNT,≤ 0.2
20,NRWL,≤ 0.2
21,ENMV,≤ 0.2
22,CFTR,≤ 0.2
23,TMFL,≤ 0.2
24,ENTE,≤ 0.2

row,Variant,one-hybrid fitness for binding parS DNA
1,IMAS,≤ 0.2
2,HTIV,≤ 0.2
3,YKDC,≤ 0.2
4,PCAD,≤ 0.2
5,QREW,≤ 0.2
6,TIIR,≤ 0.2
7,ALYW,≤ 0.2
8,WPHT,≤ 0.2
9,KEQS,≤ 0.2
10,ALWS,≤ 0.2
11,QNKA,≤ 0.2
12,LKHN,≤ 0.2
13,WVGK,≤ 0.2
14,MHLT,≤ 0.2
15,TACT,≤ 0.2
16,QHLP,≤ 0.2
17,LSNY,≤ 0.2
18,RCTK,≤ 0.2
19,QKCK,≤ 0.2
20,HLRM,≤ 0.2
21,QRWE,≤ 0.2
22,YKQP,≤ 0.2
23,LWMG,≤ 0.2
24,NFHC,≤ 0.2

row,Variant,one-hybrid fitness for binding parS DNA
1,FMKW,≤ 0.2
2,TSST,≤ 0.2
3,PFGC,≤ 0.2
4,ANAW,≤ 0.2
5,APHV,≤ 0.2
6,FEPF,≤ 0.2
7,AKLC,≤ 0.2
8,QNQY,≤ 0.2
9,HYKC,≤ 0.2
10,IKNS,≤ 0.2
11,QHQD,≤ 0.2
12,LPDG,≤ 0.2
13,MKPR,≤ 0.2
14,EAQF,≤ 0.2
15,LDSV,≤ 0.2
16,QSGT,≤ 0.2
17,KLFG,≤ 0.2
18,KLQG,≤ 0.2
19,APAI,≤ 0.2
20,VFVR,≤ 0.2
21,RIVR,≤ 0.2
22,KVIT,≤ 0.2
23,QFGG,≤ 0.2
24,RFYW,≤ 0.2

row,Variant,one-hybrid fitness for binding parS DNA
1,NQQV,≤ 0.2
2,HWQF,≤ 0.2
3,QCRV,≤ 0.2
4,QYHV,≤ 0.2
5,VVAC,≤ 0.2
6,IIYF,≤ 0.2
7,ASYG,≤ 0.2
8,QPKD,≤ 0.2
9,QLSE,≤ 0.2
10,LWDC,≤ 0.2
11,YRGC,0.271
12,CDAS,≤ 0.2
13,NRGA,≤ 0.2
14,WLAG,≤ 0.2
15,NHAF,≤ 0.2
16,LRNV,≤ 0.2
17,VEAQ,≤ 0.2
18,VGKT,≤ 0.2
19,GRGL,≤ 0.2
20,IGNN,≤ 0.2
21,VHMY,≤ 0.2
22,QQHV,≤ 0.2
23,PWAL,≤ 0.2
24,KLNP,≤ 0.2

row,Variant,one-hybrid fitness for binding parS DNA
1,HARG,≤ 0.2
2,KCKP,≤ 0.2
3,IQYE,≤ 0.2
4,RSIA,0.474
5,THCG,≤ 0.2
6,AYAN,≤ 0.2
7,LDIY,≤ 0.2
8,DPCR,≤ 0.2
9,SHKI,≤ 0.2
10,YPCG,≤ 0.2
11,QFLT,≤ 0.2
12,KMDS,≤ 0.2
13,PESD,≤ 0.2
14,LVGE,≤ 0.2
15,DHRQ,≤ 0.2
16,GWCG,≤ 0.2
17,GTEE,≤ 0.2
18,AQKQ,≤ 0.2
19,ALKG,≤ 0.2
20,ILTT,≤ 0.2
21,YAGG,≤ 0.2
22,RAKY,0.644
23,VRSS,≤ 0.2
24,LMRL,≤ 0.2

row,Variant,one-hybrid fitness for binding parS DNA
1,TIRH,≤ 0.2
2,NELR,≤ 0.2
3,PMSY,≤ 0.2
4,QMSE,≤ 0.2
5,HAWT,≤ 0.2
6,ENYK,≤ 0.2
7,EHTT,≤ 0.2
8,KMLK,≤ 0.2
9,GPHT,≤ 0.2
10,RKTD,≤ 0.2
11,MHPF,≤ 0.2
12,FRFC,≤ 0.2
13,CQHW,≤ 0.2
14,YFLR,≤ 0.2
15,SCLK,≤ 0.2
16,CSQG,≤ 0.2
17,LYDW,≤ 0.2
18,WFWS,≤ 0.2
19,AIDD,≤ 0.2
20,KAES,≤ 0.2
21,DHRY,≤ 0.2
22,CSQN,≤ 0.2
23,THQN,≤ 0.2
24,PYSH,≤ 0.2

row,Variant,one-hybrid fitness for binding parS DNA
1,SGHP,≤ 0.2
2,AVKS,≤ 0.2
3,QVRC,≤ 0.2
4,QTIY,≤ 0.2
5,MSNK,≤ 0.2
6,STRK,≤ 0.2
7,RIVF,0.378
8,RMLI,≤ 0.2
9,AAPC,≤ 0.2
10,PMMV,≤ 0.2
11,NCHW,≤ 0.2
12,NIAA,≤ 0.2
13,TGEV,≤ 0.2
14,VYNQ,≤ 0.2
15,TVSI,≤ 0.2
16,PPIG,≤ 0.2
17,PACW,≤ 0.2
18,FREP,≤ 0.2
19,KMLC,≤ 0.2
20,TFSE,≤ 0.2
21,PNET,≤ 0.2
22,WTVT,≤ 0.2
23,MTLR,≤ 0.2
24,QGQG,≤ 0.2

row,Variant,one-hybrid fitness for binding parS DNA
1,QGWR,≤ 0.2
2,MQAT,≤ 0.2
3,RDFA,≤ 0.2
4,NGEN,≤ 0.2
5,RFEM,0.246
6,YAPE,≤ 0.2
7,PPQE,≤ 0.2
8,GQHW,≤ 0.2
9,RKIG,0.855
10,ALRN,≤ 0.2
11,LISA,≤ 0.2
12,LRTE,≤ 0.2
13,GLGP,≤ 0.2
14,FRGE,≤ 0.2
15,MIPG,≤ 0.2
16,EKES,≤ 0.2
17,NLGV,≤ 0.2
18,QPHR,≤ 0.2
19,PLWR,≤ 0.2
20,IVFG,≤ 0.2
21,TAEL,≤ 0.2
22,LHYR,≤ 0.2
23,QVTK,≤ 0.2
24,PGGV,≤ 0.2

row,Variant,one-hybrid fitness for binding parS DNA
1,KNRS,≤ 0.2
2,PPRA,≤ 0.2
3,QGNY,≤ 0.2
4,MIYS,≤ 0.2
5,PHVV,≤ 0.2
6,NLGR,≤ 0.2
7,QTIT,≤ 0.2
8,ENKN,≤ 0.2
9,MRPR,≤ 0.2
10,RCYC,1
11,RKDV,≤ 0.2
12,MTVA,≤ 0.2
13,LSFS,≤ 0.2
14,NHAS,≤ 0.2
15,FFAG,≤ 0.2
16,DPKS,≤ 0.2
17,RRPI,≤ 0.2
18,EVDT,≤ 0.2
19,RDET,≤ 0.2
20,YPLK,≤ 0.2
21,ERGW,≤ 0.2
22,HQTV,≤ 0.2
23,AAYG,≤ 0.2
24,ELWG,≤ 0.2

row,Variant,one-hybrid fitness for binding parS DNA
1,NMRA,≤ 0.2
2,PGTF,≤ 0.2
3,MCGS,≤ 0.2
4,DATC,≤ 0.2
5,LQRA,≤ 0.2
6,LDEG,≤ 0.2
7,ADLA,≤ 0.2
8,TMHS,≤ 0.2
9,DGPI,≤ 0.2
10,RKKS,0.69
11,PNFS,≤ 0.2
12,SELY,≤ 0.2
13,GERD,≤ 0.2
14,APIH,≤ 0.2
15,NKVG,≤ 0.2
16,RWSE,≤ 0.2
17,YAVI,≤ 0.2
18,MRDT,≤ 0.2
19,KQSG,≤ 0.2
20,FIQR,≤ 0.2
21,RIDG,0.831
22,CKIG,≤ 0.2
23,SPTS,≤ 0.2
24,IPVI,≤ 0.2

row,Variant,one-hybrid fitness for binding parS DNA
1,FAPT,≤ 0.2
2,PGPS,≤ 0.2
3,TRCH,≤ 0.2
4,SICT,≤ 0.2
5,PPVL,≤ 0.2
6,LHAC,≤ 0.2
7,HCRY,≤ 0.2
8,SQDC,≤ 0.2
9,RVMG,0.971
10,FVEG,≤ 0.2
11,APWS,≤ 0.2
12,CPRE,≤ 0.2
13,KISE,≤ 0.2
14,SGMW,≤ 0.2
15,IRYW,≤ 0.2
16,NLSK,≤ 0.2
17,RDDE,≤ 0.2
18,DLLA,≤ 0.2
19,QTCF,≤ 0.2
20,MAEN,≤ 0.2
21,QILH,≤ 0.2
22,FPAT,≤ 0.2
23,SEFS,≤ 0.2
24,QQRN,≤ 0.2

row,Variant,one-hybrid fitness for binding parS DNA
1,YTLT,≤ 0.2
2,HASE,≤ 0.2
3,LPFI,≤ 0.2
4,DWNA,≤ 0.2
5,PYGR,≤ 0.2
6,APLQ,≤ 0.2
7,PFWN,≤ 0.2
8,RPLC,≤ 0.2
9,RNMI,≤ 0.2
10,YNRC,≤ 0.2
11,RNGL,≤ 0.2
12,VRAE,≤ 0.2
13,NALN,≤ 0.2
14,DLCC,≤ 0.2
15,TLAI,≤ 0.2
16,QGDI,≤ 0.2
17,RPSP,≤ 0.2
18,DVVT,≤ 0.2
19,KGWT,≤ 0.2
20,HPED,≤ 0.2
21,RIVP,≤ 0.2
22,ELDV,≤ 0.2
23,ARCL,≤ 0.2
24,RQIM,≤ 0.2

row,Variant,one-hybrid fitness for binding parS DNA
1,CVPG,≤ 0.2
2,ALSY,≤ 0.2
3,NNYL,≤ 0.2
4,HKSY,≤ 0.2
5,VVLP,≤ 0.2
6,WRAV,≤ 0.2
7,PLWH,≤ 0.2
8,RAWS,1.05
9,TPVF,≤ 0.2
10,YITC,≤ 0.2
11,SMAK,≤ 0.2
12,HSQW,≤ 0.2
13,KGRR,≤ 0.2
14,WAPY,≤ 0.2
15,QKFP,≤ 0.2
16,QMMF,≤ 0.2
17,TNDF,≤ 0.2
18,QPFA,≤ 0.2
